Experimental data from paper PMC10668032.
The list shows a part of the results. At the low end of the ranking the order means little.

What follows are sequences tested against SIX1-Q177R homeodomain (UniProt Q15475) (assay: universal protein binding microarray). Conditions: Universal all-10-mer PBM (8x60K, AMADID 030236), 300 nM GST-tagged protein, Alexa Fluor 488 anti-GST; buffer, salt, pH and temperature not stated; high values mean tight binding; most listed sequences are background and not binding sites; double strand, one strand shown.

Sequence	binding signal
AATTTAAG	-0.174 E-score
GTTAGAAA	0.0144 E-score
ACCATACT	0.0472 E-score
AGCTCGCA	-0.17 E-score
CGGCCCGA	-0.0203 E-score
ACTCGCAA	0.0208 E-score
AACATGTG	0.0316 E-score
GCAACAGC	-0.237 E-score
CAATGGTG	0.299 E-score
CGTGTTTA	0.346 E-score
TAATCTCA	-0.248 E-score
AGGTATAG	-0.124 E-score
TCCCTACA	0.108 E-score
CTCCCCTA	0.159 E-score
GCCCGGAC	0.131 E-score
CATGGGTC	0.0693 E-score
CCGACATA	0.0627 E-score
ATGCGTTG	-0.0271 E-score
GTGATGTA	0.0603 E-score
AACTGGTC	-0.119 E-score
GTAGTAAA	0.0464 E-score
CAATTCAA	-0.0718 E-score
GTCGGCAA	-0.0898 E-score
TTAAGGAA	-0.129 E-score
AGTTTGCA	-0.106 E-score

Sequence	binding signal
ACCTCTGG	0.0399 E-score
AGTGTAAT	0.413 E-score
AGTACCTG	0.0113 E-score
CCCCAGCG	0.0766 E-score
ACTATGTC	-0.126 E-score
GCACCTGA	0.0656 E-score
ACTTCGCG	-0.104 E-score
CGAGAAAA	-0.306 E-score
TACTTAAA	-0.0659 E-score
CCCAATGA	0.0235 E-score
GGCGCGAC	-0.0141 E-score
ACGACCGA	0.0274 E-score
TACCACAA	-0.0323 E-score
TCAGATCA	-0.121 E-score
GGGTGCTA	0.217 E-score
ACCTCCTG	0.108 E-score
GCGAGTAC	0.175 E-score
TAACCGCA	0.029 E-score
GACATCCC	-0.166 E-score
AGCGTTGA	0.019 E-score
GTCAGAAC	0.0509 E-score
CCAGTACG	-0.161 E-score
GTGTAGGA	0.4 E-score
AGACCGCA	-0.217 E-score
GCGAAAGC	-0.161 E-score

Sequence	binding signal
AATTCGCA	-0.0928 E-score
GTATGGAA	-0.232 E-score
CATATACC	0.138 E-score
AAGTGCAA	-0.171 E-score
ACGTAGAT	-0.286 E-score
GTACGTTA	-0.0065 E-score
GAATGTTA	-0.169 E-score
CATCCAGA	0.131 E-score
CGTCAGAG	0.058 E-score
CGAACCTC	0.0976 E-score
AGGTCAAC	-0.242 E-score
AAGACGCT	-0.163 E-score
TGAACGAA	-0.233 E-score
AGCAGGCT	-0.121 E-score
ATTCTACA	0.181 E-score
ATGACTTA	-0.365 E-score
ATGGAAGG	-0.102 E-score
GATCGTAA	-0.121 E-score
ATAGACCG	-0.0648 E-score
AGCGGCAG	-0.282 E-score
ATTCACCA	-0.273 E-score
CTACGGAG	-0.184 E-score
CGCAGATC	0.0189 E-score
ATGTTAAC	0.00543 E-score
GCGTCTAA	-0.11 E-score

Sequence	binding signal
ATGAGTTA	-0.225 E-score
AAACTTGT	-0.277 E-score
ATAGGTTC	-0.104 E-score
CACCGGAA	0.288 E-score
CACTAAGA	0.17 E-score
AGGCCATA	-0.00853 E-score
GCGGAGCC	-0.145 E-score
ACCTCCAA	-0.0469 E-score
ACCCCATC	0.245 E-score
CTGTCGTA	-0.137 E-score
CACGGTAC	0.186 E-score
GCGATCGA	-0.063 E-score
ATAAGAAG	-0.156 E-score
GTAAAGGA	-0.0804 E-score
GACACGCC	0.444 E-score
GAGGTAGA	-0.0516 E-score
ATACAATA	-0.0298 E-score
AAAGATCG	-0.119 E-score
CCGTGGTC	-0.172 E-score
ATCCCGAG	0.0949 E-score
ATACCACG	0.216 E-score
AGGCCTAG	-0.173 E-score
AGCTTAAG	-0.0738 E-score
CACTGTGA	0.177 E-score
AAGTGGCA	0.00348 E-score

Sequence	binding signal
GGGAGCCC	-0.133 E-score
AAAAAGCG	-0.0947 E-score
ACACTTTC	0.354 E-score
AATCCAGT	-0.185 E-score
ACATGTCG	-0.0917 E-score
ACCAAAAG	-0.146 E-score
ATGTTCGA	-0.0912 E-score
ACGGGAGC	-0.0173 E-score
AAGTAGTG	0.27 E-score
CGGGGCAC	0.145 E-score
CAACTTGC	-0.113 E-score
GAAGTAGA	-0.0925 E-score
CTAGTCGC	0.0377 E-score
GAGCAACA	-0.0136 E-score
GGCCTATA	-0.0243 E-score
ACTTCCAC	0.0553 E-score
GCGAGACC	-0.181 E-score
CCGTGTGA	0.299 E-score
GGAGGGCA	-0.00359 E-score
GAGCTTCA	-0.192 E-score
CAGCGAAG	-0.132 E-score
CGCCCACC	0.0748 E-score
CAACCTCG	-0.0524 E-score
CCACGAAG	0.0936 E-score
CATGTCTA	-0.0915 E-score

Sequence	binding signal
AGGATACG	0.108 E-score
ACTGCACT	-0.0731 E-score
CTTTTGGA	-0.116 E-score
GATGCATA	-0.137 E-score
AGTACACT	0.406 E-score
GTTGAGCA	-0.0993 E-score
CGAGAGAC	-0.0128 E-score
CGCAGCTA	-0.292 E-score
AGTTCTCA	-0.252 E-score
CAATGCAA	-0.0317 E-score
CTCCTTTC	0.12 E-score
AACGATTA	-0.0282 E-score
ACCAACAT	-0.0965 E-score
AGCTTACA	0.139 E-score
CCCCAAAA	0.0915 E-score
CCCTATCG	-0.0506 E-score
ATACCCTC	0.234 E-score
AACGCAGG	-0.165 E-score
CGCGCCAC	-0.13 E-score
ACTAACGA	-0.039 E-score
AGAGCAGG	-0.031 E-score
CCCGAAAA	0.103 E-score
AGCCCCAA	-0.197 E-score
CGGCAGCC	0.00382 E-score
CGAGCAAA	-0.292 E-score

Sequence	binding signal
GGCAGCAA	-0.243 E-score
GTATAAGA	0.0387 E-score
TACAAGAA	-0.273 E-score
GGGCACCA	0.0836 E-score
ATGATCCC	0.251 E-score
AAGATAGC	-0.283 E-score
CTACGCCA	0.0179 E-score
ATATGACG	-0.16 E-score
GAACAATA	-0.0552 E-score
ACACAAGG	0.155 E-score
ACGATCAG	0.00326 E-score
TATATCCA	-0.107 E-score
GTAGTAAC	-0.0446 E-score
AAGCACTG	-0.0761 E-score
CCCATTCG	-0.107 E-score
CATGGCGA	-0.16 E-score
ACCTACGC	0.08 E-score
GCTACGTA	0.0284 E-score
ATTTAACC	0.0565 E-score
GTGTCGAA	0.448 E-score
AACGAAAC	-0.0413 E-score
GAATACAA	-0.117 E-score
